# According to the supplement of paper PMC3334620:
# Over roughly 33,000 sequences, “E-score (-0.5 to 0.5)” has its median near -0.012; the highest 2% begin near 0.29. The list shows a part of the results.
# Target: T1, Ybr033w (UniProt P38073)
# T1 sequence: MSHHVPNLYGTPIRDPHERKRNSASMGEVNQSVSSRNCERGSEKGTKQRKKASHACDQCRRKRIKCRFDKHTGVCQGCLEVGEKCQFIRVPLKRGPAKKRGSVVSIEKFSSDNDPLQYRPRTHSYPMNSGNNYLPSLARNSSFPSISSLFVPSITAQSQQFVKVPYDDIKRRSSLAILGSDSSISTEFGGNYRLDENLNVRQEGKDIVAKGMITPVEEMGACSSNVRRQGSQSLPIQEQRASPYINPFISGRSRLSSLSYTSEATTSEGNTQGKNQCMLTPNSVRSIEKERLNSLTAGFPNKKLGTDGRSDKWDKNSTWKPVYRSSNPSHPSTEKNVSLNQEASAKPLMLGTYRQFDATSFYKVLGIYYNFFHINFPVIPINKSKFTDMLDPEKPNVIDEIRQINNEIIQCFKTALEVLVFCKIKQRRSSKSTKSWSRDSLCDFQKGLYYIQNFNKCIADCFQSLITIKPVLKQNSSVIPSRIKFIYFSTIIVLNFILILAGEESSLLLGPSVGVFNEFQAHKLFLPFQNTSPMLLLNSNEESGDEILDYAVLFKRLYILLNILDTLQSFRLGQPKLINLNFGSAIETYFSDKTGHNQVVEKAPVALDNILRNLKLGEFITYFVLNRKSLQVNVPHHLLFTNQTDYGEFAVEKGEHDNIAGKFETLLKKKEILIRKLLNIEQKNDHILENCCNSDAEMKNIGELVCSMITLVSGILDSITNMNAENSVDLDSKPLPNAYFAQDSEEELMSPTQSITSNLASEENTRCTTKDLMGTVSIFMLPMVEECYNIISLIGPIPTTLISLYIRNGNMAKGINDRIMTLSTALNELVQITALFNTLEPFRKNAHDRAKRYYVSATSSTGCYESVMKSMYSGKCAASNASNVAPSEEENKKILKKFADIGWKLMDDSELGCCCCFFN
# Assay: PBM E-score (8-mer binding enrichment) (E-score (-0.5 to 0.5)); higher = stronger / more preferred TF binding; most listed sequences are background and not binding sites
# Conditions: protein concentration: 200 nM; construct: GST-full length
# Summary of the method: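 Masliner-normalised scans of fluorescent anti-GST signal were the basis for scoring. That signal came from GST-tagged yeast transcription factors applied at about 100-200 nM to double-stranded universal all-10-mer Agilent arrays on fresh or once-stripped slides. Each ungapped eight-base word, pooled with its reverse complement, received an E-score from the Universal PBM Analysis Suite.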
row,Sequence,PBM E-score
1,GTGCCAAA,-0.164
2,AAATATCA,0.252
3,ATACAGAT,0.167
4,AACTGCCT,0.126
5,CTTGTTAA,0.113
6,CGTACGAA,0.0522
7,ATCCCCTC,-0.187
8,AAACTGTC,0.0592
9,CGGGGTGC,-0.219
10,GAAGAAGA,0.0623
11,CTGCTGTA,0.072
12,GAGATGTA,0.132
13,CCTGCTTA,-0.0521
14,AAACTGCT,-0.0956
15,AGCGAAGA,-0.162
16,AAGCTCCG,0.00583
17,TCGTCAAA,0.172
18,CCCGTTAC,-0.0764
19,AAACACAG,0.156
20,CTACGGTA,0.0261
21,ACGAACTA,0.158
22,CTCTTCAA,-0.164
23,GATTTTCC,0.416
24,AAACTGAC,-0.0118
25,ACTAATAG,0.2

row,Sequence,PBM E-score
1,GTACTGTA,-0.0259
2,ATGGCGAC,-0.0981
3,TCGGTCCA,-0.146
4,CTACACAG,0.0413
5,GTAGGCAC,-0.13
6,CAAGTCGG,0.0358
7,AACGATTC,0.146
8,ACTTTCGG,-0.184
9,ACTTCAAA,0.0779
10,ACCCTTCG,-0.159
11,CAAAGTAA,0.186
12,AATTTGGA,-0.00713
13,ACCAATGC,0.038
14,CCGGAAAA,0.44
15,AGAATTGG,-0.0659
16,CGATATAA,0.123
17,CCATCCGG,-0.169
18,ACGCGCAA,0.159
19,CAAACCGC,-0.122
20,GCAGTCAC,-0.0861
21,ACCACCTG,-0.0161
22,GTGACTCA,-0.0878
23,ACAGATTG,0.0486
24,GATAAAGA,0.154
25,AATTGTTG,0.114

row,Sequence,PBM E-score
1,CACTCATA,0.182
2,CGATGCCA,-0.26
3,AAGGGCTC,-0.182
4,ATAATGTC,0.0977
5,AGTACAGG,0.0939
6,GCGAAAGC,-0.0712
7,AAAGAAGG,-0.0787
8,AGCATTTG,0.105
9,CGGCTGGC,-0.261
10,CCGTAACA,-0.0808
11,ACACGACG,-0.0483
12,ATTTGTCA,0.16
13,ATGTAAGA,0.217
14,ATGCACAT,0.0773
15,ACTTCCAA,0.135
16,ACCAGGGA,-0.238
17,CCGGGGAG,-0.227
18,AACTATGT,-0.0122
19,ACTAGAAT,0.167
20,AATCAAGT,0.128
21,CGAAAAAG,0.121
22,ACGCCCGA,-0.224
23,ACTTCCCA,0.00549
24,CCTGTAAG,-0.0311
25,GCATCAAC,0.0597

row,Sequence,PBM E-score
1,AAAATTTA,0.269
2,GTGGAAGA,0.137
3,CGACCGGA,0.00568
4,ACCGGCGG,-0.152
5,CCTTTAAG,-0.053
6,TATTGAGA,0.173
7,GTAAGTCA,0.0193
8,ACTGGCGG,-0.00828
9,CGGCCGAC,-0.0576
10,ACAGAGAA,0.0806
11,CTAGGTGC,-0.206
12,TACATCCA,0.15
13,CGCGGTAC,-0.147
14,TCATAAGA,0.114
15,ACCGAGTG,-0.115
16,TAATTTCA,0.289
17,CCTGGGCC,-0.286
18,AGGCTGCG,0.00235
19,CCAGTAAA,0.0984
20,GACTCTAA,0.115
21,TCATCCCA,-0.0103
22,AGTATTCA,0.142
23,CCGGATAG,0.0368
24,ACCAAAAG,0.135
25,GGGGCATA,-0.14

row,Sequence,PBM E-score
1,AATGCAGC,-0.0861
2,AAAACGGG,0.036
3,AGGCAGCC,-0.0856
4,AATTGGGG,-0.223
5,GAAGCTCA,-0.0233
6,CGCCTCCC,-0.375
7,AGAATGAA,0.184
8,AGACGGTA,0.033
9,TCGGCTAA,0.0162
10,TAGTTGGA,0.174
11,AACCCGTT,-0.114
12,GCTCAGAC,0.0418
13,CACCCAGC,-0.284
14,ACTCGAGT,0.111
15,ACACGGTA,0.0624
16,ACAACGGT,-0.167
17,TAGCTGCA,-0.177
18,ATATGGGC,-0.0129
19,AAACGATG,0.162
20,CCACCGAC,-0.0879
21,AATCCTGC,-0.0851
22,AAAGAGAT,0.0748
23,TACAGATA,0.291
24,GAAGAGCA,-0.153
25,ACGCGCAC,-0.0175

row,Sequence,PBM E-score
1,CTTGCTTA,0.0963
2,CCACGCAA,0.0511
3,CAAGAGCA,-0.19
4,ATCCACCA,0.05
5,GAAAAGGC,-0.0286
6,ATATGCCA,0.167
7,AACCCGGT,-0.135
8,TACACCGA,-0.0283
9,TCAACAAA,0.167
10,GTGCCTGA,-0.0516
11,AACACATA,0.247
12,AAGTCCCC,-0.285
13,CTATGAGC,-0.0638
14,CATAGTAG,0.087
15,AAGTACGG,-0.0591
16,TAGCTAGA,-0.00952
17,GAGGGTGA,-0.135
18,AACCCGGG,-0.111
19,GAACAACC,0.241
20,CACGACTC,0.0534
21,AATGCCGC,0.0501
22,CGGCACCG,-0.208
23,CAAACTTG,0.0901
24,ATTGTAAG,-0.0101
25,CAATGCTC,-0.00261

row,Sequence,PBM E-score
1,GCAGTCGC,-0.239
2,GGCCGTGA,-0.206
3,ATAGGGGA,-0.197
4,GACGTTGC,0.0121
5,ATATCATA,0.248
6,ATATGCGC,0.047
7,ATGAGGCA,-0.13
8,CATCCAAC,0.128
9,CTTATAGC,0.0209
10,AGGTACCC,-0.263
11,ACTAAGCT,0.205
12,CACCACCG,-0.312
13,AGACTGCC,-0.219
14,AGCCAGTC,-0.195
15,CCGTGGGC,-0.0714
16,AGAAGCGG,-0.103
17,AGTATGAA,0.182
18,AGTTTGAG,0.0877
19,ACTACAGG,0.145
20,CAGAGGGC,-0.151
21,ACTCGGAC,0.0175
22,CTACCAGC,-0.0422
